Assay results published in the RNAGym collection of RNA variant scans (doi:10.1073/pnas.2313332121).
Variants at the floor of the assay are shown more often than the library holds them.

B1: TPR 5TU (parent)
chain: GGAUCUUCUCGAUCUAACAAAAAAGACAAAUCUGCCACAAAGCUUGAGAGCAUCUUCGGAUGCAGAGGCGGCAGCCUUCGGUGGCGCGAUAGCGCCAACGUUCUCAACUAUGACACGCAAAACGCGUGCUCCGUUGAAUGGAGUUUAUCAUG

Variants of: B1
Experiment: polymerase ribozyme fitness, log enrichment relative to wild type (log ratio); higher = more active; in vitro selection for triplet polymerase activity
In short: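 The heterodimeric triplet polymerase ribozyme's subunits were each mutagenized into PCR-built libraries and transcribed. Every library was selected once, in triplicate, by annealing with a biotinylated primer, the partner subunit and triplets, incubating frozen at −7 °C, gel-excising extended constructs, capturing on streptavidin beads and running RT-PCR. Input and output libraries were Illumina-sequenced, with genotypes kept only at ≥10 input reads and ≥1 read per output. Fitness, from inverse-variance-weighted replicate averages, is the base-2 logarithm of genotype enrichment over wild-type enrichment.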

Polymerase ribozyme fitness (log ratio), -2.2:
U6C C38A G59U C69A

Polymerase ribozyme fitness (log ratio), -3.64:
U6A U7C G83A C125A

Polymerase ribozyme fitness (log ratio), -3.91:
U6G A39C C85A A98G G126C

Polymerase ribozyme fitness (log ratio), -2.47:
C5U C51U G84A A150G

Polymerase ribozyme fitness (log ratio), -0.984:
U6C A40U U56A G59U C87U A98U C118U

Polymerase ribozyme fitness (log ratio), -2.05:
C5U G46U C85G

Polymerase ribozyme fitness (log ratio), -1.13:
C5U U13C C95U U146G

Polymerase ribozyme fitness (log ratio), ≤ -4.2:
C5U A24C C79A G84A U104A A142G
C5U A26G A52U G59A A60G A97U U144A
C5U A28C A30U C95G
C5U A28C C38U G74C A115U
C5U A28G G42A G59C G70C C72U C87U C93A G94A
C5U A40U C85U C95G C132G G141A
C5U A49C G81U C93G
C5U A49G G67U G84U U144G G152U
C5U C8A A26U U53A G58A A89G A91C C103G C149U
C5U C8G A137U U145A A147C
C5U C10U G88A C103G A137C
C5U C18G U44G U53G U55A G68A G92U C118U G143A
C5U C18U G34U C36U C132G
C5U C27G C75G C87A C95A C99A U127A A138U G140C
C5U C43G G68C G74A C76G C87U
C5U C43G U53A A60U C87A C99A A121U
C5U C76G G83U U90A G128U U135G
C5U C87A
C5U G11A A29U G70C G84A C96U
C5U G25C G42U U61A A107U G133U A142C U148A
C5U G34U U77A
C5U G50C C76A C87A
C5U G50C C85A A106G U148A
C5U G50C C87U C103G A121G C123U C125G
C5U G58A A91U
C5U G84U U148G
C5U U9A A47U C63U C123U U135G
C5U U13A A23G C36U G46A A97U C103U
C5U U13A C14A U53A U55A C76A A120U G124C
C5U U15A A17G C18U G42A U53A U55A A60C G68C C79U A91C A97G
C5U U33C C57U A60U G81U C87U A91G
C5U U44A C87A C99U A150U
C5U U45G G62C G65A C87A G141U U144G
C5U U61A U90C G94U A107G C129G U134A
C5U U90G
U6A A12C A16U A19U C75G G84C A97G A98U U102A G124U
U6A A12G G86A G88U U144A
U6A A16U A19G A22U A30U C87G A107C U139G
U6A A21U A22C A49G A73C C75G U82G C114A
U6A A21U C108G C132U G143U
U6A A22C C75U G84A A97G C108G A113C C116A U135G
U6A A23G A52U A122G
U6A A23U G84U C116A A150C
U6A A24C C57G G59C C93A A97C C132G
U6A A24C G48A C93U U127G U144A
U6A A26C C27G C76G U135G G152U
U6A A26C C35A G65C C125U
U6A A26G G46A U53A C103G A142G
U6A A26G G58U G84A U90G
U6A A29U A41U G83A G86A C108A U139G
U6A A37G G71U A73G C93G C99A C131A
U6A A37G G80A C87A U102G G152A
U6A A47C C54U C96A C99A G128A G136C
U6A A52C C87A
U6A C8A C54A C93G C118U U146A
U6A C10U U53C C54G C79G C93A C95U A113C
U6A C14G A16U G62C G86U
U6A C18A A19U A37C C51U C75G G83A C96G G136U
U6A C18U U55A C75G C87U C105G U135G
U6A C36U C54U U55G U90G
U6A C51G G59U G68C G86U A97U C99U G100C
U6A C51U A52U U56A G83U G84A C114U
U6A C69A G92U A98G U111C G152C
U6A G34A C69U A73G U77A C79A C87A C96U C105A A107U G136A U139A
U6A G48A G62A U82C G126A A142G G152A
U6A G48U G92U A121C A150C
U6A G68C C99G U102C C105A A106U C132G G143A
U6A U9A A17G A29U C69A A91U
U6A U9G C35G A60G C69G G88C C96A
U6A U13A C32U C51U G67U G133U G140U
U6A U13C C51U C87A A91U U144G
U6A U53G C93U G140A
U6A U56A G92C G100A C132G
U6A U56G U61A C76U C79U C85G G100C C108A
U6A U90G C95U U109G A137C
U6C A16C U56A A66G U145G
U6C A19U A20U A22U A30G C87U C105U C132U
U6C A19U G25C G58U A66C G80A C85A A97C A98C U104G
U6C A19U U61A C75G G141A U148C
U6C A23U C36U
U6C A24C C87A A107G
U6C A24C U55A U139C
U6C A24U A40C U56A A73U C76G C129U
U6C A30C G50C G86U A115U
U6C A30G C36A G88U C95A A115G U135C
U6C A41C G83A A91C G136U U146A
U6C A41U C69G C96A A115U
U6C A49C U55A U104C U146C
U6C C8U G83C C116A A121C
U6C C10A A24U A110G
U6C C10U C76G G92C
U6C C18U A47G G70U
U6C C18U G50A C76A C96G
U6C C27U U53A G80U C93U
U6C C32A A49U G70U U82G C87U C105G
U6C C51A G68A G84A
U6C C87A G88U C96A A120U C123U
U6C G11A A39U G50U C85U C103U
U6C G11A C51U G86A A107U U139A U146C
U6C G48C G65A U78A G80A G88C C95U C108U A110C
U6C U13A G25C A49C U55C G58A C95U A113U
U6C U13C C14U G34A G80C A91G
U6C U44A C87G A89U
U6C U44A U61G A66G C95G U104G G112U C116U A147U
U6C U45G G68C G71U C96U C125U G141A
U6C U77G C116U U130G
U6G A12C C87A C114G
U6G A12U A20U C51A C96A G100U C118A U148C
U6G A12U A28C G65U U127G
U6G A12U A39U A89U C95A A115U G152A
U6G A16U A41U C87A A120C U139C A142U
U6G A17C C57G C85A C116G A137U G143U
U6G A19G U55A G67C U90G A113C G133C
U6G A20U A21G A24G A26U C51U G94U A98C A120G U139A G140U
U6G A21C A66C G71A C103A
U6G A21U A26G A40C A66G A107U U135A G141A
U6G A22C C36A C54U A64C C87A U148A
U6G A22U C51A A66C C69U
U6G A23U A73G C76A A98G C105G A113C A119G
U6G A24C A40G G94A G143A U144A
U6G A26C A29G U44A A52U U53A A73G C93G
U6G A26C G136A A142U U146A
U6G A30C A89G C103G U127G
U6G A30C C76U U78G
U6G A37C C51G G74C A98U C103A C118A G128U U135C U146C G152A
U6G A39C G46C G74A U90A C93U A122G C125A
U6G A40G C57A A73U U77G G84U C132G U134A
U6G A41C G42A U56C C85A C99A
U6G A41U C76A A147G
U6G A49G C99G A106G C116G C129A A138U U148G C149G
U6G A52G C72A G124C U134G
U6G A60G G62A C85A G92U
U6G C8A C10G C85A
U6G C8U A16G G25U U56A G81A C87U
U6G C10G G50C U55A G58A C72G C95U C96U U144G U148A
U6G C10U A12U U33G A37U C95A U135A G141U U144C
U6G C10U A28G G67C G94A
U6G C14A A37C C43A U53A C75G C87U G100C G126A G140U
U6G C14A U44G A52C C69G G71C G92U A120C G133A G141C
U6G C14G A115U U148G
U6G C14G G68A C75G C95U C108A
U6G C32U C43U C93G U139C

Polymerase ribozyme fitness (log ratio), 0.464:
U6A C57G C105U

Polymerase ribozyme fitness (log ratio), -0.506:
U6G A121U

Polymerase ribozyme fitness (log ratio), -3.08:
U6C C27U U145C

Polymerase ribozyme fitness (log ratio), -0.846:
U6A C87U

Polymerase ribozyme fitness (log ratio), -3.97:
U6G A16C A22U C51U C76U C85A C118U
U6G A29G

Polymerase ribozyme fitness (log ratio), -4.11:
U6G A60C C85A C96U G124U

Polymerase ribozyme fitness (log ratio), -0.24:
C5U C85U

Polymerase ribozyme fitness (log ratio), -3.61:
C5U A52C C76U C93A C116U C123G

Polymerase ribozyme fitness (log ratio), -3.13:
U6C G48A A106G

Polymerase ribozyme fitness (log ratio), -0.431:
U6A U56A

Polymerase ribozyme fitness (log ratio), -3.88:
U6A C35A U104C

Polymerase ribozyme fitness (log ratio), -1.78:
U6A G25U

Polymerase ribozyme fitness (log ratio), -3.68:
U6A U7G U31C G34A A41U

Polymerase ribozyme fitness (log ratio), -0.118:
U6A U55G

Polymerase ribozyme fitness (log ratio), -0.399:
U6G A120G

Polymerase ribozyme fitness (log ratio), -3.49:
U6A A52C G81U C85G
U6C A60U G86A
